PubChem BioAssay AID493208 (National Center for Advancing Translational Sciences (NCATS), 2011)
Among all 44,000 compounds or so, about 340 (0.77%) were called active. Not shown: some 5% with an inconclusive outcome. The call rests on the fitted dose curve; in most records, active means well fitted inhibition curve with a large enough effect; inconclusive means small, poorly fitted or top-dose-only effect; inactive means flat fitted curve, though single readings scatter. The list shows a part of the results.

Assay: Acumen qHTS Assay for Inhibitors of the mTORC1 Signaling Pathway in MEF (Tsc2-/-, p53-/-) Cells: Sytravon;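 further: plate controls were DMSO for no effect and rapamycin for full effect; nearly all actives have a fitted effect of over 50% in size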
Conditions: phospho-rpS6 immunofluorescence/PI, 24 h; series mostly up to 38.3 µM; activity change, negative = inhibition: at the top concentration
Summary of the method: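 Cell-based qHTS: Tsc2-/- p53-/- MEF, 24 h cpd, 37 °C; fix/perm, anti-phospho-S6 Alexa-488 + PI; Acumen 488 nm scan; pS6/PI ratio, % positive cells; rapamycin 7.5 nM = inhibition ref; PI count = viability.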

Activity change, negative = inhibition, inactive:
Cc1ccc(S(=O)(=O)c2nc(-c3cccs3)oc2SC(C)C)cc1 -25.7%, O=C(Cn1c(=O)oc2cc(S(=O)(=O)N3CCCC3)ccc21)Nc1ccc(F)cc1F -0.855%, CCNC(=O)CC1C(=O)N(c2ccc(C)cc2)C(=O)N1CCC(C)C (stereo unspecified) 1.39%, COc1ccc2c(Sc3ccc(Cl)cc3)c(C(=O)N3CCC(C)CC3)[nH]c2c1 -5.9%, CCOC(=O)c1c(C)oc2nc(C)nc(NCc3cccc(Cl)c3)c12 4.01%, O=C(c1cccc(Cl)c1)n1nc(-c2cccnc2)nc1NCc1ccccc1 4.86%, CCOC(=O)c1nc(Nc2ccc(C(=O)OC)cc2)c2ccccc2n1 -14.8%, CSCCC(NS(=O)(=O)c1ccc2c(c1)oc(=O)n2C)C(=O)N1CCN(c2ccc(C(C)=O)cc2)CC1 (stereo unspecified) 1.18%, COc1cccc(C(=O)NCC(=O)OCc2cc(=O)n3ccsc3n2)c1 1.79%, CCc1ccccc1NC(=O)c1ccc(=O)n(Cc2ccc(F)cc2)c1 0.211%, CCc1ccc(-n2c(=O)c3cccnc3n2CC(=O)Nc2cc(OC)ccc2OC)cc1 -0.896%, Cc1ccc(C(=O)Nc2nc(-c3nnn(-c4cccc(C(F)(F)F)c4)c3C)ns2)cc1 3%, COc1cc(OC)cc(C(=O)Nc2nnc3n2CCS3)c1 -14.4%, CC(C)CC(=O)Nc1nnc(SCc2cc(=O)n3ccccc3n2)s1 6.18%, Cc1ccc(CCNC(=O)c2cn(C)c3ccc(S(=O)(=O)N4CCC(C)CC4)cc3c2=O)cc1 1.03%, Cc1cc(C)c(NC(=O)CCCn2c(C)c3cnn(-c4ccccc4)c(=O)c3c2C)c(C)c1 -0.486%, COc1cc(OC)cc(-c2nc3nc(C)c(CCC(=O)NCCC(C)C)c(C)n3n2)c1 -6.42%, CCOC(=O)c1c(S(=O)(=O)NCC(=O)Nc2ccc(F)cc2C)c(C)n(C)c1C -8.56%, COc1ccccc1NC(=O)CN1C(=O)CSc2ccc(S(=O)(=O)N3CCCC3)cc21 -2.64%, CCN(CC)S(=O)(=O)c1ccc2[nH]cc(C(=O)NCCc3ccccc3)c(=O)c2c1 -1.1%, O=c1c(S(=O)(=O)c2cccc(Cl)c2)cn(Cc2ccccc2)c2cc(N3CCCCC3)c(F)cc12 -1.39%, CC(=O)C1=C(c2ccc(Br)cc2)N(C(C)=O)n2c(nnc2C2CCCCC2)S1 -3.79%, CCn1ccc2cc(S(=O)(=O)N3CCC(C(=O)NCCc4ccccc4)CC3)ccc21 1.74%, COc1cc(OC)c(NC(=O)c2c(C)oc3nc(C)nc(N4CCOCC4)c23)cc1Cl -4.06%, COc1cccc(-n2cc(C(=O)OCc3ccc(Cl)cc3)c3ccccc3c2=O)c1 -2.37%, O=C(NCc1ccccc1Cl)c1ccc(Cn2c(=O)c3cccn3c3cccnc32)cc1 -10.2%, Cc1cccc(CNC(=O)c2ccc(C)c(-n3c(C)nc4cccnc43)c2)c1 0%, CCOc1ccc(-n2c(=O)c3c(C)c(C)sc3n(CC(=O)N3CCC(C)CC3)c2=O)cc1 1.96%, COCCCNC(=O)c1cnn(-c2ccc(F)cc2F)c1C1CCNCC1 -5.9%, O=C(Cn1c(=O)oc2cc(S(=O)(=O)NCc3ccccc3)ccc21)NCc1ccccc1Cl -11.6%, Nc1ccc2nc(-c3ccc(O)cc3)sc2c1 -7.36%, COc1ccc(NC(=O)CC2C(=O)N(c3ccc(F)cc3)C(=O)N2CCc2sccc2C)cc1 (stereo unspecified) 2.3%, CCOC(=O)c1cc(-c2ccccc2)n(CCC(=O)Nc2cc(C)cc(C)c2)c1C 2.27%, Cc1ccc2scc(N3CCCCC3)c(=O)c2c1 -0.503%, CN(Cc1ccccc1)C(=O)C1CCC(CNS(=O)(=O)c2ccc3c(c2)CCCC(=O)N3)CC1 (stereo unspecified) -16.6%, Cc1ccc(N2CCN(C(=O)C3CCN(c4ncnc5c4nc4n5CCCCC4)CC3)CC2)c(C)c1 -1.61%, Cc1ccc2nc(NC(=O)c3nc(SCc4ccccc4C)ncc3Cl)sc2c1 4.83%, O=C(O)CCc1nnc2cnc3ccccc3n12 -0.307%, Cc1ccc2ncc(C(=O)NC(C)c3ccccc3)c(=O)n2c1 (stereo unspecified) 1.38%, CCc1nn(CC(=O)NCCCc2ccccc2)c(=O)c2cc3c(OC)cccc3n12 -9.01%, CC(=O)N1CCC2(CC1)OC(=O)C(C)=C2C(=O)NCc1cccc(Cl)c1 -0.694%, Cc1ccc(N2CCN(C(=O)c3c(C)oc4ncnc(N5CCOCC5)c34)CC2)c(C)c1 -7.9%, Cc1ccc(N2C(=O)CS(=O)(=O)C23C(=O)N(C)c2ccccc23)cc1F (stereo unspecified) -3.89%, Cc1ccc(CN2CCCn3nc(C(=O)NCc4cc(C)ccc4C)cc3C2=O)cc1 0%, Cc1ccc(C(=O)Nc2nnc(S(=O)(=O)N3CCN(c4ccc(F)cc4)CC3)s2)cc1 7.03%, O=[N+]([O-])c1cc(-c2nc(-c3ccccn3)no2)ccc1NCc1ccccc1 -0.653%, CCc1cccc(NC(=O)CSc2ncc3c(n2)-c2ccccc2N(CC)S3(=O)=O)c1 -5.21%, COc1ccc(NC(=O)C(C)n2nc(-c3cc(C)ccc3C)c3c(c2=O)CCCC3)cc1 (stereo unspecified) -6.07%, COCCCNC(=O)CCC(=O)NNc1nc2ccccc2c2nc(-c3ccccc3)nn12 -7.69%, COCCNC(=O)CSc1nc2cc3c(cc2c(=O)n1Cc1ccc(C(=O)NCCc2ccc(OC)c(OC)c2)cc1)OCO3 -4.98%, CCOc1ccc(NC(=O)CSc2nnc(-c3ccncc3)n2-c2ccccc2)cc1 -2.55%, COc1ccc(CNC(=O)c2ccc(CSc3nc4ccncc4n3Cc3ccccc3F)cc2)cc1 1.05%, CCOc1ccc(Nc2ncnc3c2cnn3-c2ccc(F)cc2)cc1 13%, CCOC(=O)C(=O)Nc1nnc2n1CCS2 -0.909%, Cc1nc2c(C(=O)NCc3ccccc3Cl)cnn2c(C)c1Cc1ccccc1 -3.63%, COc1ccc(NC(=O)Cn2c(=O)n(Cc3ccccc3)c(=O)c3oc4ccccc4c32)cc1Cl 1.39%, Cc1nc(N2CCCC2)ncc1C(=O)N1CCN(c2ccc(Cl)cc2)CC1 4.07%, Cc1ccc(C)c(-n2cc(-c3ccccc3)nc2SCC(=O)Nc2ccccc2)c1 3.14%, Cn1cc(S(=O)(=O)N2CCCCC2)cc1C(=O)N1CCN(c2ccccc2F)CC1 -1.26%, O=C(CSc1nc2c([nH]c3ccccc32)c(=O)n1-c1ccc(Cl)cc1)N1CCCCCC1 0.905%, COc1cccc(-c2csc(-c3c(N)c(C(=O)c4ccccc4)n4ccccc34)n2)c1 8.23%, CCOC(=O)c1ccccc1NC(=O)Cn1c(=O)n(CCCC(=O)NCc2ccc3c(c2)OCO3)c(=O)c2ccccc21 -0.347%, COC(=O)c1c(SCC(=O)Nc2cccc(Cl)c2C)[nH]c2ccccc2c1=O 0%, CN(C(=O)c1c2c(nc3ccccc13)C(=O)N(C1CCCCC1)C2)c1ccc(F)cc1 -17.4%, Cc1ccc(S(=O)(=O)NCCc2csc3nc(-c4ccccc4F)nn23)cc1C 2.32%, COc1cccc(-c2nc(SCc3ccc(C)cc3)n3[nH]c(=O)cc3n2)c1 -1.77%, CC(C)(C)OC(=O)N1CCC(c2c(C(=O)N3CCC(c4ccccc4)C3)cnn2-c2ccc(Cl)cc2)CC1 (stereo unspecified) 5.75%, Cc1ccc(C)c(N2CCN(c3nc4ccc(Cl)cc4n4cnnc34)CC2)c1 -3.7%, CCOC(=O)c1c(C)oc2ncnc(N3CCN(c4ccccc4)CC3)c12 -13.8%, O=[N+]([O-])c1ccc(S(=O)(=O)N2CCn3cccc3C2c2ccccc2F)cc1 (stereo unspecified) 0.166%, CC(NC(=O)C1CCN(S(=O)(=O)c2ccc3c(c2)oc(=O)n3C)CC1)c1ccccc1 (stereo unspecified) -7.27%, Cc1ccccc1OCc1nnc(SCc2cc(=O)c3ccc(C)c(C)c3[nH]2)n1C -6.56%, COc1ccccc1-c1nc(S(=O)(=O)c2ccccc2)c(N2CCC(C)CC2)o1 -4.24%, Cc1ccc(-c2cc3c(n2-c2ccc(F)cc2)CC(C)(C)CC3=O)cc1 -12.6%, COc1ccccc1CCNC(=O)C(=O)NCC(c1ccco1)S(=O)(=O)c1ccccc1 (stereo unspecified) -1.63%, Cc1cccc(NC(=O)CSc2nc3ccccc3c3nc(CCc4c(C)n[nH]c4C)nn23)c1 -9.52%, COc1ccc(Nc2nc3ccccc3nc2NS(=O)(=O)c2ccc(Cl)cc2)cc1OC -1.54%, CCOC(=O)c1cccc(NC(=O)CSc2nc3cc4ccccc4cc3[nH]2)c1 -8.74%, CC(C)c1cnc2c(c1SCC(=O)O)c(=O)n(C)c(=O)n2C -0.311%, COc1ccccc1-c1cc(C(=O)NCCc2ccccc2)no1 -17.6%, CCC(C(=O)NCc1cccc(Br)c1)n1nc(C)c2c(C)n(-c3ccccc3)nc2c1=O (stereo unspecified) -13.1%, CC(=O)Nc1ccc(NC(=O)c2cnn(-c3ccccc3)c2C2CCN(C(=O)OC(C)(C)C)CC2)cc1 -3.65%, O=S(=O)(Nc1cccc(F)c1)c1ccc2[nH]c3c(c2c1)CCCCC3 0.297%, COc1cc(OC)cc(C(=O)Nc2ccc3c(c2)OCCO3)c1 4.88%, O=C(CNC(=O)c1ccccc1F)OCc1cc(=O)n2nc(C3CC3)sc2n1 -9.74%, CCOc1ccccc1Nc1nnc(-c2cc3cc(Cl)ccc3oc2=O)s1 -0.0855%, CC(NC(=O)c1cc2ccccc2o1)c1ccccc1 (stereo unspecified) -16.2%, CCC(=O)N1CCc2cc(CNC(=O)c3ccc(C#N)cc3)ccc21 -1.73%, CCOc1ccc(NC(=O)CSC2=Nc3ccccc3C3=NC(Cc4ccccc4)C(=O)N23)cc1 (stereo unspecified) 1.59%, CCOC(=O)c1c(C)[nH]c(C)c1S(=O)(=O)N1CCCC(C(=O)Nc2cccc(C)n2)C1 (stereo unspecified) 0.43%, CCCn1nc(NC(=O)c2cccc(Cl)c2)c2cc3cccc(C)c3nc21 5.75%, COc1ccc(-c2nc3sc(CCNC(=O)C(=O)Nc4ccc(C)c(F)c4)c(C)n3n2)cc1 0.137%, COc1ccccc1CN1CCN(C2CCN(C(=O)Nc3ccccc3)CC2)C(=O)C1=O 0%, Cc1ccc(NC(=O)Cn2c(-c3nonc3N)nc3ccccc32)cc1C -1.35%, CCc1ccc(S(=O)(=O)c2cn(C)c3cc(F)c(F)cc3c2=O)cc1 3.46%, CC(Nc1ccc(-c2nc(-c3ccco3)no2)cc1[N+](=O)[O-])c1ccccc1 (stereo unspecified) 5.65%
